B1: LINE1-mini (parent)
chain: GGCAGAGCUCAACACAGCGUGGCAAAGUGGCUGUGGCUAGACUGCC

The source gives no read counts; variants with many changes may rest on few reads.

The variants in the series derive from B1. The experiment in a line: self-cleavage, relative activity (ratio to wild type); higher = more cleavage; in vitro, sequencing; the parent is a self-cleaving ribozyme.
In the case of CGCAAAGCACAACACAGCGUGGCACAGGGUCUGUGGCUAGACUGAC [G1C G5A U9A A25C U28G G30U C45A], the self-cleavage turned out to be 0.03.
On to CCAAGAGGUCAACACAGCGUGGCAAAGUGGCUGUGGCUAGACUGCC [G1C G2C C3A C8G], for which the self-cleavage turned out to be 0.02.
With CGCAAAGCUCAACACAGCGAGUCAAACUGGCUGUGGGUAGACUGCC [G1C G5A U20A G22U G27C C37G] the figure was 0.01.
For the variant CUCAGAUCUCAACACAGCGUGGCAAAGUGGCUGUGGCAAGACUGCC [G1C G2U G7U U38A], the self-cleavage is 0.02.
For the variant CACAGAGCUCAACAUAGCGUGGCAAAGUGGCUGUGGCUAGACUGCC [G1C G2A C15U], the self-cleavage worked out at 0.17.
With CGCACAGCUCAACACAGCGUGGCAAUGUGGCUGUGGCUAAACUGCC [G1C G5C A26U G40A] the figure was 0.03; with CUCAGAGCUCCACACAGCGUGGCAAAGAGGCUGUGGCUAGACUGCC [G1C G2U A11C U28A], 0.02; with CGCAGAACUCAACCCAGCAUGGCAAAGUGGCUCGGGCUAGACUGCC [G1C G7A A14C G19A G33C U34G], 0.01.
For CGCAAAGCUCAACACAGCGUGGCAAAGCGGCUGUGGCUGGACUGCC [G1C G5A U28C A39G], the self-cleavage turned out to be 0.03.
On to CACAGAGCUUAACACAGCGUGGCAAAGUGGCUGUGGCUAGACUGCC [G1C G2A C10U], for which the self-cleavage worked out at 0.11.
On to CGCAAAGAUCAACACAGCGUGGCAAAGCGGGUGUGUCUAGACUGCC [G1C G5A C8A U28C C31G G36U], for which the self-cleavage worked out at 0.01.
As to CGCACAGCUCAACACAACGUGGUAAAGUGGCUGUGGCUAGACUGCC [G1C G5C G17A C23U], the self-cleavage amounted to 0.02.
For the variant CACAGAGCUCAACACAGCGUGGCAAAGUGGCUGCGGCUAGCCUGCC [G1C G2A U34C A41C], the self-cleavage was determined as 0.01.
As to CUCAGAGCUCAACAGAGAUUGGCAGAGUGGCUGUGGCUAGACUGCC [G1C G2U C15G C18A G19U A25G], the self-cleavage stood at 0.01.
Turning to CGCAUAGUUCAACACAGCGUGGCAAAGUGGCUGUAGCUAGACUGCC [G1C G5U C8U G35A], the self-cleavage is 0.02.
CGCAAAGGUCAACACAGCGUGGCAAAGUGGCUGUUGCUGGACAGCC [G1C G5A C8G G35U A39G U43A]: the self-cleavage amounted to 0.02.
With CGCACGGCUCAACACAGCGUGGCAAAGUGGCUGUGGCUUGAUUGCC [G1C G5C A6G A39U C42U] the figure was 0.01; with CGCACAGCUCAACACAGCGUGGCAAAGUUGCUGUGGCUAGACUGCC [G1C G5C G29U], 0.03.
CGCAAAGCCCAACACAGCGUGGCCAAGUGGCUGUGGUUAUACUGCC [G1C G5A U9C A24C C37U G40U]: the self-cleavage was found to be 0.02.
Turning to CGCAGAGCUCAACACAGCGUGGCAAAGUGGCUGUGGAUACACUACC [G1C C37A G40C G44A], the self-cleavage was determined as 0.04.
As to CGCACAGCUCGACGCAGCGUGGCAAAGUGGCUGUGGCUAGACUGCC [G1C G5C A11G A14G], the self-cleavage turned out to be 0.
As to CGCAGAACUCAACAUAGCGUCGCAAAGUGGAUGUGGCUAGACUGCC [G1C G7A C15U G21C C31A], the self-cleavage came to 0.03.
On to CGCACAGCUCAACACAGCGUGGCAAUGUGGCUGUGGCUAGACUGCC [G1C G5C A26U], for which the self-cleavage came to 0.03.
For the variant CGCAGAGCUCAACACAGCGUGGCAAAGUGGCUGUGGCUAGAAUGCU [G1C C42A C46U], the self-cleavage worked out at 0.02.
With CGCAGAACUCAACACAGGGCGUCAAAGUGGCUGUGGCUAGACUGCC [G1C G7A C18G U20C G22U], the self-cleavage was 0.02.
In the case of CUCAGAGGUCAACACAGCGUGGCAAAGUGGCCAUGGCUAGGAUGCC [G1C G2U C8G U32C G33A A41G C42A], the self-cleavage was 0.
Turning to CACAGGGCUCAACACAGCGUGGCAAAGUGGCUGUGGCUAGACUGCC [G1C G2A A6G], the self-cleavage was determined as 0.1.
With CACAGCGCUCAACACAGCGUGGCAAAGUGGCUGUGGCUAGACUGCC [G1C G2A A6C], the self-cleavage was determined as 0.04.
As to CGCAUAGCGCAACUCAGCGUGUCAAAGUCGCUGUGGCUAUACUGCC [G1C G5U U9G A14U G22U G29C G40U], the self-cleavage was 0.01.
For CGCAUCGCUCUACACAGCGAGGCAAAGUGGCUGUGGCUAGACUGCC [G1C G5U A6C A11U U20A], the self-cleavage was found to be 0.
CUCAGAGCUCAACACAGCGUGGCAAAGUGGCGGUGGCUAGACUGCC [G1C G2U U32G]: the self-cleavage came out at 0.02.
With CGCAAAGAUCAACACAGCGUAGCAAAGUGGCUGUGGCUAGACUGCU [G1C G5A C8A G21A C46U] the figure was 0.46.
With CCGAGACCUCAACAAAGCGUGGCAAAGCGGCUGUGGCUAGACUGCC [G1C G2C C3G G7C C15A U28C], the self-cleavage is 0.
CGCAGAACUCAACACAGCGUGGCAAAGUGGCUGGGGCUAGACUGCC [G1C G7A U34G]: the self-cleavage turned out to be 0.04.
With CGCAGAACUCGACACAGCGUGGCAAAGUGGCUGUGACUAAACUGCC [G1C G7A A11G G36A G40A], the self-cleavage was determined as 0.01.
For CUCAGAGCUAAACACAGCGUGGCAAAGUGGCUGUGGCUAGACUGCC [G1C G2U C10A], the self-cleavage stood at 0.02.
With CGCAGAUCUCACCACAGCGUGGCAAAUUGGCUGUGGCUAGACUGCC [G1C G7U A12C G27U] the figure was 0.01; with CACAGACCUCAACACAGCGUGGCAAAGUUGCUGUGGCUAGACUGCC [G1C G2A G7C G29U], 0.07; with CACAGAGCGCAACACAGCAUGGCAAAGUGGCUGUGGCUAGACUGCC [G1C G2A U9G G19A], 0.08.
As for CGCAGAGCUCAACACAGCGUGGCAAAGUGGCUGUGGCUAGAGUGCA [G1C C42G C46A], the self-cleavage was 0.
For the variant CUCAGAGCACAAAACAGCGUCGCAAAGUGGCUGUGGCUAGACUGCU [G1C G2U U9A C13A G21C C46U], the self-cleavage is 0.09.
In the case of CGCAGAACUCAACACAGCGUGGCAAAGUGCCUGUGGCUAGACUGCC [G1C G7A G30C], the self-cleavage was 0.06.
In the case of CACAGAGCUCAACACAGCGGGCCAAAGUGGCUUUAGCUAGACUGCC [G1C G2A U20G G22C G33U G35A], the self-cleavage came to 0.03.
For the variant CGCAGAGCUCAACACAGCGUGGCAAAGUGGCUGUGGUUAGACUCCC [G1C C37U G44C], the self-cleavage was 0.02.
On to CACAGAGCUCAACACAGCAUGGCAUAGUGGCUGUGGCUAGACUGCC [G1C G2A G19A A25U], for which the self-cleavage came to 0.19.
Regarding CACAGAGCACAACACAGCAUGGAAAAGUGGCUGUGGCUAGACUGCC [G1C G2A U9A G19A C23A], the self-cleavage amounted to 0.06.
CGCAAAGCUCAACACAGCGUGGCAAAGUAGCUGUGGCUAGACUGCC [G1C G5A G29A]: the self-cleavage is 0.08.
For CACAGAGCCUAACACAGCGUGGCAAAUUGGCUGUGGCUAGACUGCC [G1C G2A U9C C10U G27U], the self-cleavage amounted to 0.02.
For CAUAGAGCUCAGCACAGCGUGGCAAAGUGGCUGUGGCUAGACUGCC [G1C G2A C3U A12G], the self-cleavage was 0.01.
On to CGCAGAACUCAACACAGCGUGGCAAAUUGGCUGUGGCUAGACUGCC [G1C G7A G27U], for which the self-cleavage is 0.03.
CCCAGAGCUCAACACAGAUUGGCAAGGUGGCGGUGGCUAGACUGCC [G1C G2C C18A G19U A26G U32G]: the self-cleavage turned out to be 0.17.
With CGCAGAGCUCAACACAGCGUGGCAAAGUGGCUGUGGUUGUACUGCC [G1C C37U A39G G40U] the figure was 0.01; with CCCAGAGCUCAACGCAGCGUGGCAAAGUGGCGGUGGCUAGACUGCC [G1C G2C A14G U32G], 0.02; with CGCAUAGCUCAACACAGUGUGGCAAAGUGGCUGUGGCUAGAAUGCC [G1C G5U C18U C42A], 0.02.
With CGCAAAGCUCAACACAGCGUUGCAAAGUGGCCGUGGCUAGACUGCC [G1C G5A G21U U32C] the figure was 0.01.
In the case of CGCAGACCUCAACACAGCCUGGCAAAGUGGCUGUGGCUAGACUGCC [G1C G7C G19C], the self-cleavage was determined as 0.03.

For the origin of these results see the RNAGym collection of RNA variant scans (doi:10.7554/elife.90254).
